biological target: RSV F-glycoprotein (Human respiratory syncytial virus A, UniProt C3UPB4); test: cell-based

Point of comparison: `CCCNC(=O)Nc1ccc(-n2nc3cc(Cl)c(Cl)cc3n2)cc1` [10b, 1-[4-(5,6-dichloro-2H-benzo[d][1,2,3]triazol-2-yl)phenyl]-3-propylurea], EC50 3.9 µM. Against it:
- COc1cc(C(=O)Nc2ccc(-n3nc4cc(Cl)c(Cl)cc4n3)cc2)cc(OC)c1OC [8d, N-[4-(5,6-dichloro-2H-benzo[d][1,2,3]triazol-2-yl)phenyl]-3,4,5-trimethoxybenzamide] — within 1.5-fold, 4.5 µM
- O=C(Nc1ccc(-n2nc3cc(Cl)c(Cl)cc3n2)cc1)NC1CCCCC1 [10d, 1-[4-(5,6-dichloro-2H-benzo[d][1,2,3]triazol-2-yl)phenyl]-3-cyclohexylurea] — within 1.5-fold, 3.2 µM

Source: PMC6476926, “Dichloro-Phenyl-Benzotriazoles: A New Selective Class of Human Respiratory Syncytial Virus Entry Inhibitors” (Frontiers in Chemistry, 2019)
